# The supplement of paper PMC8728848
# Some of the results follow.
# Tests used:
# Experiment in all cases: glycan array binding signal (z-score within array); higher = stronger binding
# Conditions in all cases: glycan notation: IUPAC condensed, linker removed
# [1] = target: Neu5Ac(a2-3)Gal(b1-3)GlcNAc(b1-2)Man(a1-3)[Neu5Ac(a2-3)Gal(b1-3)GlcNAc(b1-2)Man(a1-6)]Man(b1-4)GlcNAc(b1-4)GlcNAc
# How it was run: (§1)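 The binding signal is a Z-score computed within each array and averaged over linkers. Arrays of the same protein sequence at different concentrations or buffers were also averaged together. Data originate from 3228 arrays in the Consortium for Functional Glycomics database, kept only where the protein sequence was available.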
# [2] = target: Neu5Ac(a2-3)Gal(b1-3)GlcNAc(b1-3)Gal(b1-3)GlcNAc
# How it was run: as §1
# [3] = target: Neu5Ac(a2-3)Gal(b1-3)GlcNAc(b1-3)Gal(b1-4)GlcNAc
# How it was run: as §1
# [4] = target: Neu5Ac(a2-3)Gal(b1-3)GlcNAc(b1-3)GalNAc
# How it was run: as §1
# [5] = target: Neu5Ac(a2-3)Gal(b1-3)GlcNAc(b1-4)Gal(b1-4)Glc
# How it was run: as §1
# [6] = target: Neu5Ac(a2-3)Gal(b1-3)GlcNAc(b1-6)GalNAc
# How it was run: as §1
# [7] = target: Neu5Ac(a2-3)Gal(b1-3)GlcNAc6S
# How it was run: as §1
# [8] = target: Neu5Ac(a2-3)Gal(b1-3)[Fuc(a1-4)]GlcNAc
# How it was run: as §1
# [9] = target: Neu5Ac(a2-3)Gal(b1-3)[Fuc(a1-4)]GlcNAc(b1-3)Gal(b1-3)[Fuc(a1-4)]GlcNAc
# How it was run: as §1
# [10] = target: Neu5Ac(a2-3)Gal(b1-3)[Fuc(a1-4)]GlcNAc(b1-3)Gal(b1-4)[Fuc(a1-3)]GlcNAc
# How it was run: as §1
# [11] = target: Neu5Ac(a2-3)Gal(b1-3)[GlcNAc(b1-6)]GalNAc
# How it was run: as §1
# [12] = target: Neu5Ac(a2-3)Gal(b1-3)[Neu5Ac(a2-6)]GalNAc
# How it was run: as §1
# [13] = target: Neu5Ac(a2-3)Gal(b1-3)[Neu5Ac(a2-6)]GlcNAc(b1-3)[Fuc(a1-3)[Gal(b1-4)]GlcNAc(b1-6)]Gal(b1-4)Glc
# How it was run: as §1
# [14] = target: Neu5Ac(a2-3)Gal(b1-3)]Neu5Ac(a2-3)Gal(b1-4)]GlcNAc
# How it was run: as §1
# Neu5Ac(a2-3)Gal(b1-4)Glc = target: Neu5Ac(a2-3)Gal(b1-4)Glc
# How it was run: as §1
# [15] = target: Neu5Ac(a2-3)Gal(b1-4)GlcNAc
# How it was run: as §1
# [16] = target: Neu5Ac(a2-3)Gal(b1-4)GlcNAc(b1-2)Man
# How it was run: as §1
# [17] = target: Neu5Ac(a2-3)Gal(b1-4)GlcNAc(b1-2)Man(a1-3)[GlcNAc(b1-4)][Neu5Ac(a2-3)Gal(b1-4)GlcNAc(b1-2)Man(a1-6)]Man(b1-4)GlcNAc(b1-4)GlcNAc
# How it was run: as §1
# [18] = target: Neu5Ac(a2-3)Gal(b1-4)GlcNAc(b1-2)Man(a1-3)[Neu5Ac(a2-3)Gal(b1-4)GlcNAc(b1-2)Man(a1-6)]Man(b1-4)GlcNAc(b1-4)GlcNAc
# How it was run: as §1
# [19] = target: Neu5Ac(a2-3)Gal(b1-4)GlcNAc(b1-2)Man(a1-3)[Neu5Ac(a2-3)Gal(b1-4)GlcNAc(b1-2)Man(a1-6)]Man(b1-4)GlcNAc(b1-4)[Fuc(a1-6)]GlcNAc
# How it was run: as §1
# [20] = target: Neu5Ac(a2-3)Gal(b1-4)GlcNAc(b1-2)Man(a1-3)[Neu5Ac(a2-6)Gal(b1-4)GlcNAc(b1-2)Man(a1-6)]Man(b1-4)GlcNAc(b1-4)GlcNAc
# How it was run: as §1
# [21] = target: Neu5Ac(a2-3)Gal(b1-4)GlcNAc(b1-2)[Neu5Ac(a2-3)Gal(b1-4)GlcNAc(b1-4)]Man(a1-3)[GlcNAc(b1-4)][Neu5Ac(a2-3)Gal(b1-4)GlcNAc(b1-2)[Neu5Ac(a2-3)Gal(b1-4)GlcNAc(b1-6)]Man(a1-6)]Man(b1-4)GlcNAc(b1-4)GlcNAc
# How it was run: as §1
# [22] = target: Neu5Ac(a2-3)Gal(b1-4)GlcNAc(b1-2)[Neu5Ac(a2-3)Gal(b1-4)GlcNAc(b1-4)]Man(a1-3)[GlcNAc(b1-4)][Neu5Ac(a2-3)Gal(b1-4)GlcNAc(b1-4)Man(a1-6)]Man(b1-4)GlcNAc(b1-4)GlcNAc
# How it was run: as §1
# [23] = target: Neu5Ac(a2-3)Gal(b1-4)GlcNAc(b1-2)[Neu5Ac(a2-3)Gal(b1-4)GlcNAc(b1-6)]Man(a1-6)[Neu5Ac(a2-3)Gal(b1-4)GlcNAc(b1-2)Man(a1-3)]Man(b1-4)GlcNAc(b1-4)GlcNAc
# How it was run: as §1
# [24] = target: Neu5Ac(a2-3)Gal(b1-4)GlcNAc(b1-2)[Neu5Ac(a2-3)Gal(b1-4)GlcNAc(b1-6)]Man(a1-6)[Neu5Ac(a2-3)Gal(b1-4)GlcNAc(b1-2)Man(a1-3)][GlcNAc(b1-4)]Man(b1-4)GlcNAc(b1-4)GlcNAc
# How it was run: as §1
# [25] = target: Neu5Ac(a2-3)Gal(b1-4)GlcNAc(b1-3)Gal
# How it was run: as §1
# [26] = target: Neu5Ac(a2-3)Gal(b1-4)GlcNAc(b1-3)Gal(b1-3)GlcNAc
# How it was run: as §1
# [27] = target: Neu5Ac(a2-3)Gal(b1-4)GlcNAc(b1-3)Gal(b1-4)GlcNAc
# How it was run: as §1
# [28] = target: Neu5Ac(a2-3)Gal(b1-4)GlcNAc(b1-3)Gal(b1-4)GlcNAc(b1-2)Man(a1-3)[Neu5Ac(a2-3)Gal(b1-4)GlcNAc(b1-3)Gal(b1-4)GlcNAc(b1-2)Man(a1-6)]Man(b1-4)GlcNAc(b1-4)GlcNAc
# How it was run: as §1
# [29] = target: Neu5Ac(a2-3)Gal(b1-4)GlcNAc(b1-3)Gal(b1-4)GlcNAc(b1-3)Gal(b1-4)GlcNAc
# How it was run: as §1
# [30] = target: Neu5Ac(a2-3)Gal(b1-4)GlcNAc(b1-3)Gal(b1-4)GlcNAc(b1-3)Gal(b1-4)GlcNAc(b1-2)Man(a1-3)[Neu5Ac(a2-3)Gal(b1-4)GlcNAc(b1-3)Gal(b1-4)GlcNAc(b1-3)Gal(b1-4)GlcNAc(b1-2)Man(a1-6)]GalNAc
# How it was run: as §1
# [31] = target: Neu5Ac(a2-3)Gal(b1-4)GlcNAc(b1-3)Gal(b1-4)GlcNAc(b1-3)GalNAc
# How it was run: as §1
# [32] = target: Neu5Ac(a2-3)Gal(b1-4)GlcNAc(b1-3)Gal(b1-4)GlcNAc(b1-3)[Neu5Ac(a2-3)Gal(b1-4)GlcNAc(b1-3)Gal(b1-4)GlcNAc(b1-6)]GalNAc
# How it was run: as §1
# [33] = target: Neu5Ac(a2-3)Gal(b1-4)GlcNAc(b1-3)Gal(b1-4)GlcNAc(b1-6)[Gal(b1-3)]GalNAc
# How it was run: as §1
# [34] = target: Neu5Ac(a2-3)Gal(b1-4)GlcNAc(b1-3)Gal(b1-4)[Fuc(a1-3)]GlcNAc
# How it was run: as §1
# [35] = target: Neu5Ac(a2-3)Gal(b1-4)GlcNAc(b1-3)GalNAc
# How it was run: as §1
# [36] = target: Neu5Ac(a2-3)Gal(b1-4)GlcNAc(b1-3)[Neu5Ac(a2-3)Gal(b1-4)GlcNAc(b1-6)]GalNAc
# How it was run: as §1
# [37] = target: Neu5Ac(a2-3)Gal(b1-4)GlcNAc(b1-6)GalNAc
# How it was run: as §1
binder,measurement,setting,value
Pbx1 (Cryptococcus neoformans) (protein) ATTKCLVSGDQDSINNALALGGEGTTVTLCPGSVHRLNSSIIFTAPSQTLTTLGNPKDRNRAMLVVDGEDLACAIRADCKQCSHAMIRSLVIDGNRPQLLRIPKGDALIEVGNAESQTVRDCKLYEPRGWSALHFREGDERQCRFGHIVDNEIGPCGEEWDDEYDSMDETKPLWGNPRADGISLACKDSIVERNVVYDATDGAIVLFGSAGSTVKNNHVYARTRVILGGINLVDYEPWDGDYTNVKVHHNHLYALGRYFKVGIVIGPASWSDDTESVVHSASVTDNEFSGGYWGYGIVVASAKNFEVLRNKVIWDGEQGVARFSGVPGSRCPKAPENGKPTAFLINRGSAKGIFQDDFVNGEVQHIICLNPDQDPPYKPWRFRDSPEAIAAKQAENPTANSAFDSRIAEALVSYQMSLLNSMDAMTQKVEHLTNPIVDDALPFVHEHERAEADKKARQEASRKEKESGNKDVDMLNVKVEELEKSGRRLKKALDGLKSDFEGLSGRLKKSADENKPIIETIFVTSQNLLLGATSQQN,glycan array binding signal (z-score),[1],0.345
same,glycan array binding signal (z-score),[2],0.288
same,glycan array binding signal (z-score),[3],-0.214
same,glycan array binding signal (z-score),[4],-0.028
same,glycan array binding signal (z-score),[5],-0.697
same,glycan array binding signal (z-score),[6],-0.879
same,glycan array binding signal (z-score),[7],-0.618
same,glycan array binding signal (z-score),[8],-0.351
same,glycan array binding signal (z-score),[9],0.727
same,glycan array binding signal (z-score),[10],-0.226
same,glycan array binding signal (z-score),[11],-0.914
same,glycan array binding signal (z-score),[12],-0.413
same,glycan array binding signal (z-score),[13],-0.698
same,glycan array binding signal (z-score),[14],-1.05
same,glycan array binding signal (z-score),Neu5Ac(a2-3)Gal(b1-4)Glc,-0.719
same,glycan array binding signal (z-score),[15],-0.401
same,glycan array binding signal (z-score),[16],1.99
same,glycan array binding signal (z-score),[17],-0.463
same,glycan array binding signal (z-score),[18],0.152
same,glycan array binding signal (z-score),[19],-0.268
same,glycan array binding signal (z-score),[20],-0.27
same,glycan array binding signal (z-score),[21],0.361
same,glycan array binding signal (z-score),[22],-0.306
same,glycan array binding signal (z-score),[23],-0.318
same,glycan array binding signal (z-score),[24],-0.217
same,glycan array binding signal (z-score),[25],-0.544
same,glycan array binding signal (z-score),[26],-0.386
same,glycan array binding signal (z-score),[27],-0.201
same,glycan array binding signal (z-score),[28],-0.37
same,glycan array binding signal (z-score),[29],-0.335
same,glycan array binding signal (z-score),[30],1.77
same,glycan array binding signal (z-score),[31],-0.115
same,glycan array binding signal (z-score),[32],0.917
same,glycan array binding signal (z-score),[33],-0.042
same,glycan array binding signal (z-score),[34],0.13
same,glycan array binding signal (z-score),[35],-0.607
same,glycan array binding signal (z-score),[36],-0.561
same,glycan array binding signal (z-score),[37],-0.703
